Results published in ChEMBL document CHEMBL4888484, “Replenishing the malaria drug discovery pipeline: Screening and hit evaluation of the MMV Hit Generation Library 1 (HGL1) against asexual blood stage Plasmodium falciparum ,using a nano luciferase reporter read-out” (2022).
Several values for one entry are separate records, joined by “and”; a condition that tells them apart may be missing. Equal values may be shown once. About 540 (0.36%) of roughly 150,000 compounds showed an effect of 50% or more. The list shows a part of the results.

Test system: Plasmodium falciparum
Test: Primary screen in NF54 nanoGlo assay, in single point, at 2uM, 72h; a lower Z score goes with more inhibition
Type: functional, Erythrocyte
Settings: timepoint 72 hour

SMILES | % Inhibition | Z score | % Inhibition (2 µM) | Z score (2 µM)
Cc1nscc1C(C)NCC1(C(O)C(C)C)CC1 (centres undefined) | -8% | 1.77 | – | –
COc1ccccc1C(=O)N1CCc2cc(S(=O)(=O)NC3CCCC3)ccc21 | -1% | 0.17 | – | –
COc1nc(N(C)Cc2nc(C)cs2)ncc1Br | -6% | 0.61 | – | –
COc1cccc(N(C)S(=O)(=O)c2ccc3c(c2)CCCC3)n1 | -6% | 0.88 | – | –
Cn1cncc1[C@H]1C[C@@H]1NC(=O)c1ccn(CC(F)(F)F)n1 | -7% | 0.87 | – | –
O=C(NCc1ccco1)c1cccc(NS(=O)(=O)c2cccc(F)c2)c1 | 4% | -0.82 | – | –
CC(C)C[C@H]1C(=O)NCCN1Cc1cn2cccnc2n1 | -21% | 1.87 | – | –
O=C(Nc1ccc2c(c1)OCO2)N1CCC(Oc2ccccn2)CC1 | -11% | 2 | – | –
CC(C)(C)c1ccc(C(=O)N2C[C@@H]3C[C@H]2C(=O)N3c2ccccc2F)cc1 | 15% | -1.99 | – | –
CN(Cc1ccncc1)Cc1ccc(CO)o1 | -4% | 0.44 | – | –
COCCS(=O)(=O)NCc1ccc(C(C)=O)c(C)n1 | -1% | 0.15 | – | –
Cc1nc(C)c(CCNC(=O)N2CCC(c3c[nH]cn3)CC2)s1 | 8% | -1.1 | – | –
CC(C)CC[C@@]1(C2CC2)NC(=O)N(CCS(C)(=O)=O)C1=O | -3% | 0.42 | – | –
Cc1ccc(C(C)C)c(Oc2ccc(Cl)cc2NC(=O)c2cc(Cl)cc(Br)c2O)c1 | 33% | -3.71 | – | –
CCCS(=O)(=O)N1CCN(C(CC)CC)CC1 | -8% | 0.99 | – | –
Cc1cnn(CC(=O)N2CCN(c3oc(C4CC4)nc3C#N)CC2)c1 | -1% | 0.13 | – | –
O=C1C2C(c3ccccc3O)NC(Cc3c[nH]c4ccccc34)(C(=O)O)C2C(=O)N1c1ccc(Br)cc1 (centres undefined) | 0% | -0.07 | – | –
CCNC(=O)N1CCN(c2cc(C)nc(-c3cccnc3)n2)CC1 | -9% | 1.61 | – | –
O=C(c1ccccc1)c1conc1C(=O)c1ccccc1 | 2% | -0.28 | – | –
c1ccc2sc(CCCn3cc(-c4cncnc4)nn3)nc2c1 | -9% | 1.17 | – | –
COc1cc(F)c(NC(=O)N2CCN(C(=O)[C@@H]3CCCN3C)CC2)cc1OC | 1% | -0.16 | – | –
CC(C)CN1CCC(NC(=O)[C@H](C)c2cccnc2)CC1 | -18% | 2.44 | – | –

SMILES | % Inhibition | Z score | % Inhibition (2 µM) | Z score (2 µM)
CCN(CC)CCNC(=O)c1cnn(-c2ncc3c(n2)-c2cc(OC)ccc2CC3)c1C | -2% | 0.39 | – | –
Cc1ccc(C)c(CN2CC[C@H](CNC(=O)c3occc3C)C2)c1 | -19% | 3.61 | – | –
CN(CC1CCCCO1)C(=O)C1CC(Cc2ccc(F)cc2)=NO1 (centres undefined) | -3% | 0.58 | – | –
COCC[C@]1(NC(=O)c2ccc(F)cc2)CCN(Cc2ccc(Cl)cc2)C1 | -6% | 0.72 | – | –
CNc1ncc(-c2ccc(CO)cc2)c(-c2ccc(C)cc2)n1 | -15% | 2.86 | – | –
OCC(CC1CC1)NC1CCC(c2ccccc2)C1 (centres undefined) | -2% | 0.3 | – | –
O=S1(=O)c2ccccc2C(c2ccccc2)=NN1Cc1ccccc1Cl | -7% | 1.28 | – | –
Cc1ccc(NC(=O)[C@H]2CC2(F)F)c(C)n1 | -13% | 2.49 | – | –
Cc1[nH]ccc1C(=O)N1CCC2(CCC(=O)N(CCc3cccnc3)C2)CC1 | -13% | 2.48 | – | –
O=C(CCc1ccccc1)N1CCC2(CC1)CN(C1CCC1)C[C@@H]2CO | -10% | 1.12 | – | –
Cc1n[nH]c(CNc2ncc(Cl)cn2)c1C | -21% | 3.23 | – | –
Cc1cc(C)c(C(=O)N2CC[C@]3(CCOC3)C2)[nH]1 | -1% | 0.16 | – | –
O=C(COc1ccccc1)Nc1cnc(-c2cccnc2)nc1 | -25% | 2.19 | – | –
COc1ccc(CN2C(=O)N[C@@H](CC(=O)N3CCc4ccccc4C3)C2=O)cc1 | – | – | -19% and -8% | 2.49 and 1.19
Cc1cccc(O)c1NC(=O)C1=CCCCO1 | 0% | 0.01 | – | –
C[C@@](NC(=O)CCc1ccc(Cl)s1)(C(=O)O)C1CC1 | 2% | -0.25 | – | –
NS(=O)(=O)c1ccc(NC2CCN(Cc3ccccc3)CC2)c(C(=O)O)c1 | -8% | 0.98 | – | –
CCNC(=O)Nc1c[nH]nc1[C@H]1CCCN(c2ccnc(C3CC3)n2)C1 | -6% | 0.72 | – | –
CCNc1ccnc(N2CCC3(CCC(=O)N(CCc4cccnc4)C3)CC2)n1 | -8% | 1.26 | – | –
Cn1nc(-c2ccccc2Cl)cc1C(=O)NC1CCN(Cc2ccccc2)CC1 | -13% | 1.85 | – | –
CC(C)CNC(=O)N1CC[C@H](OCc2ccccc2)C1 | -5% | 0.81 | – | –
COc1ccccc1CN(C)c1cc(N)nc(C)n1 | -8% | 0.8 | – | –

SMILES | % Inhibition | Z score | % Inhibition (2 µM) | Z score (2 µM)
C[C@@H](CCC(=O)NCCCc1nnc2ccccn12)N1CCOCC1 | -6% | 0.61 | – | –
O=C(NCc1ccc(-c2ccn[nH]2)cc1)Nc1cccc(Cn2cccnc2=O)c1 | -7% | 1.23 | – | –
Cc1cc(C)nc(-n2cc(C(=O)N3CCN[C@@H](C)C3)c(C(C)C)n2)n1 | 0% | -0.06 | – | –
CC1CCCCC1OCCN1CCOCC1 (centres undefined) | -5% | 0.48 | – | –
N#Cc1csc(CNc2ncccn2)c1 | 2% | -0.22 | – | –
N#CCC1(CNC(=O)N2CCc3ccccc3CC2)CC1 | -1% | 0.19 | – | –
Cc1nc2ccccc2n1[C@H]1CCN(S(C)(=O)=O)C1 | -3% | 0.57 | – | –
CC(=O)Nc1ccc(S(=O)(=O)N2CCc3c(c(-c4nnc(-c5ccc(C)cc5)o4)nn3C)C2)cc1 | -14% | 1.58 | – | –
COc1nc(CNS(C)(=O)=O)nc(N2CCCC2)n1 | 7% | -1.01 | – | –
NCC[C@H]1CN(C(=O)Nc2ccc(Oc3ccccc3)c(Cl)c2)CCO1 | 11% | -1.47 | – | –
C=CCCS(=O)(=O)NC[C@H]1CCCN1CC | -15% | 2.14 | – | –
Cn1cc(C(=O)N[C@@H]2COC3(CCCC3)C2)c(=O)[nH]c1=O | 10% | -1.35 | – | –
O=c1c2ccccc2ncn1C[C@H]1CC[C@H](C(=O)N2CCN(Cc3ccccc3)CC2)CC1 | 1% | -0.18 | – | –
CCCNC(=O)Cc1noc([C@@H]2CCCN2S(=O)(=O)c2ccccc2)n1 | 2% | -0.22 | – | –
CC(C)CCC(=O)N1CCC[C@H](CN2CCN(c3ccccn3)CC2)C1 | -6% | 0.81 | – | –
Cc1ccc(NC(=O)c2nc(C3CCC3)oc2C)cc1F | 3% | -0.43 | – | –
C=C(C)CN1CCC(N[C@H]2CCCc3nc(C)sc32)CC1 | -11% | 1.25 | – | –
CC(NC(=O)NC1CCc2cnn(C(C)C)c2C1)C(=O)NCCF (centres undefined) | 0% | 0.06 | – | –
C[C@@H](Cn1ccnc1-c1ccnc2ccccc12)Oc1cccnc1 | -5% | 0.78 | – | –
O=C(Nc1ccc(Cl)cn1)c1ccn(COc2ccc(Br)cc2Cl)n1 | -10% | 1.13 | – | –
COc1ccc(CCNC(=O)N2CC[C@H](S(C)(=O)=O)C2)cc1F | 3% | -0.3 | – | –
c1cnc(N2CCN(C3CCCCCC3)CC2)cn1 | 8% | -0.91 | – | –

SMILES | % Inhibition | Z score | % Inhibition (2 µM) | Z score (2 µM)
CCc1nncn1C1CCN(S(=O)(=O)c2cc(F)cc(F)c2)CC1 | -2% | 0.31 | – | –
C[C@H](NC(N)=O)C(=O)Nc1ccc(N(C)C)nc1 | -14% | 1.89 | – | –
O=S(=O)(NCC1CCCCCC1)c1ccoc1 | -6% | 0.98 | – | –
Cc1noc([C@H]2CCN(C(=O)Nc3cnn(C(C)C)c3)C2)n1 | -10% | 1.69 | – | –
O=C1CC[C@@H]2CN(c3cnccn3)CC[C@@H]2N1CCC1=CCCCC1 | -7% | 0.91 | – | –
CCCCCN1CC(=O)N[C@@H]1c1csnn1 | -19% | 2.89 | – | –
c1ccc(-n2nc(C3CC3)nc2COC[C@H]2CCCO2)cc1 | -8% | 1.64 | – | –
NC(=O)c1ccc(OCC(F)(F)F)cc1 | -1% | 0.15 | – | –
CC(C)c1csc(C2CCCN(C(C(=O)O)c3ccccc3F)C2)n1 (centres undefined) | -3% | 0.53 | – | –
CC(C)(C)c1ccc(S(=O)(=O)CC2=NN=C(O)c3ccccc3O2)cc1 | -10% | 1.93 | – | –
CN(C)c1nc(NCc2cc(C(C)(C)C)n[nH]2)ncc1F | 5% | -0.96 | – | –
CNC(=O)CN(CC(=O)NC)Cc1ccc(COCc2ccccc2)cc1 | 29% | -3.26 | – | –
COc1ccc(NC(=O)[C@H]2CCN(c3cnn(C)c(=O)c3)C2)cc1 | -6% | 1.08 | – | –
COc1ccccc1CCN(C)C(=O)[C@@H]1CNCCO1 | -19% | 2.17 | – | –
C[C@H]1CN(C(=O)c2cccc(-c3nc(N)nc4[nH]cnc34)c2)CCCO1 | 1% | -0.27 | – | –
Nc1ccnc(N2CCC(CO)(CCCc3ccccc3)CC2)n1 | 3% | -0.45 | – | –
Cn1cc([C@]2(C)NC(=O)N(Cc3ncc(C(C)(C)C)o3)C2=O)cn1 | -6% | 0.7 | – | –
Cn1ncc2c(N3CCNC(=O)CC3)ncnc21 | -4% | 0.6 | – | –
NS(=O)(=O)c1cnc(NCCC(=O)N2CCCCCC2)s1 | 2% | -0.37 | – | –
CC1CN(C(=O)C2OCC3COCCC32)CC(C)[S+]1[O-] (centres undefined) | -2% | 0.44 | – | –
CN(CCN1CCOCC1)[C@@H](C(=O)O)c1cccc(-c2ccccc2)c1 | 1% | -0.16 | – | –
